Where “and” joins values, the source holds several entries; their conditions need not be identical. Equal entries are not always repeated. The list shows a part of the results. The main result of the screen is listed elsewhere. These columns were measured beside it and carry no call.
Assays:
Test in all cases: Primary Screen for Target Class Profiling of Small Molecule Inhibitors of Methyltransferases
[1] = biological target: Glycine N-methyltransferase (Homo sapiens) (UniProt Q14749); details: purified enzyme, MTase-Glo SAH luminescence; measured here: GNMT inhibition; at 40 µM; stronger effect = lower value
Summary of the method: (§1)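 Each enzyme was assayed with SAM and its substrate. SAH formation detected by MTase-Glo luminescence; single-point 40 uM screen[…].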

[2] = biological target: Guanidinoacetate N-methyltransferase (Homo sapiens) (UniProt Q14353); details: purified enzyme, MTase-Glo SAH luminescence; measured here: GAMT inhibition; at 40 µM; stronger effect = lower value
Summary of the method: as §1

[3] = biological target: Histamine N-methyltransferase (Homo sapiens) (UniProt P50135); details: purified enzyme, MTase-Glo SAH luminescence; measured here: HNMT inhibition; at 40 µM; stronger effect = lower value
Summary of the method: as §1

[4] = biological target: Nicotinamide N-methyltransferase (Homo sapiens) (UniProt P40261); details: purified enzyme, MTase-Glo SAH luminescence; measured here: NNMT inhibition; at 40 µM; stronger effect = lower value
Summary of the method: as §1

[5] = biological target: Phenylethanolamine N-methyltransferase (Homo sapiens) (UniProt P11086); details: purified enzyme, MTase-Glo SAH luminescence; measured here: PNMT inhibition; at 40 µM; stronger effect = lower value
Summary of the method: as §1
% is set by controls: 0 for no effect and ±100 for the full control effect.

| Compound | activity change, negative = inhibition [1] | activity change, negative = inhibition [2] | activity change, negative = inhibition [3] | activity change, negative = inhibition [4] | activity change, negative = inhibition [5] |
| --- | --- | --- | --- | --- | --- |
| CCc1ccc(CN2CCCC23Cc2ccccc2CNC3=O)s1 (stereo not given) | -7.64% | -6.95% | -9.07% | -26.3% | -15.7% |
| Cc1ccccc1N1C(=O)c2cc3sccc3n2CC1(C)C(=O)NC1CCCCCC1 (stereo not given) | 2.6% | 1.83% | 2.48% | -2.36% | -3.1% |
| O=C(Cn1c(=O)oc2cc(S(=O)(=O)N3CCCC3)ccc21)Nc1ccccc1Br | 0.772% | 3.83% | 0.413% | -3.21% | -3.05% |
| CC1=NOC2(CCN(Cc3ccc(N(C)C)cc3)CC2)C1 | -6.32% | -7.68% | -7.33% | -8.46% | -13.3% |
| CCc1cc2c(cc3n2CC(C)(C(=O)NC2CCCCCC2)N(CCCOC)C3=O)s1 (stereo not given) | 5.89% | 27.8% | 7.93% | 0.387% | 2.24% |
| Cc1noc([C@@H](C)NCc2cccc(Cl)c2)c1C(=O)O | -0.122% | -0.881% | 2.54% | 1.21% | 0.524% |
| CCNC(=O)C1OC(n2cnc3c(N)nc(NCCc4ccc(CCC(=O)O)cc4)nc32)C(O)C1O (stereo not given) | -8.26% | -5.78% | -5.21% | -14.8% | -7.59% |
| CN1CCN(C(=O)c2cc3n(n2)CC(C)(C(=O)NC2CCCCCC2)N(C)C3=O)CC1 (stereo not given) | 1.87% | 0% | 4.04% | 0.57% | -3.15% |
| Nc1ncnc2c1C(=O)N(c1ccc(C3CCC(CC(=O)O)CC3)cc1)CCO2 (stereo not given) | -5.92% | -2.07% | 4.97% | -12.3% | 1.21% |
| C=C[C@H]1[C@H](O[C@@H]2O[C@H](CO)[C@@H](O)[C@H](O)[C@H]2O)OC=C(C(=O)OC)[C@H]1CC=O | 0.01% | 8.76% | 6.94% | -4.39% | 5.4% |
| O=C(CSc1nnc2n(CCc3ccccc3)c(=O)c3ccccc3n12)Nc1ccc(Cl)cc1 | 3.11% | 0% | 4.48% | 0.352% | 2.15% |
| COc1ccc(OC)c2c1cc1n2CC(C)(C(=O)NC2CCCCC2)N(CCc2ccccc2)C1=O (stereo not given) | -12.8% | -3.31% | -5.97% | -4.86% | -7.66% |
| COCCCN1C(=O)c2cc3c(OC)ccc(OC)c3n2CC1(C)C(=O)NC1CCCCC1 (stereo not given) | -16.8% | -4.97% | -1.06% | 0.721% | -51.8% |
| Clc1cccc(COc2cncc(N3CCNCC3)n2)c1 | -1.13% | 3.71% | -1.14% | -25% | 0.46% |
| CCOC(=O)c1cc2n(n1)CC(C)(C(=O)NCc1ccccc1)N(c1cccc(Cl)c1C)C2=O (stereo not given) | -2.68% | 1.17% | 0.135% | -5.09% | -2.61% |
| O=S(=O)(c1ccc(Cl)cc1)c1ccc(N2CCN(c3ccccn3)CC2)nn1 | -4.33% | 0% | 10% | 4.97% | 6.82% |
| O=C(Nc1ccc(F)cc1)c1cc(-c2ccc[nH]2)n[nH]1 | -22.8% | -10.6% | -9.62% | -8.36% | -14.7% |
| CN1C(=O)c2cc(C(=O)NC3CCCCC3)nn2CC1(C)C(=O)NC1CCCC1 (stereo not given) | 1.75% | 2.62% | -2.54% | 3.04% | -2.67% |
| CCOC(=O)c1cc2n(n1)CC(C)(C(=O)NC1CCCCCC1)N(c1ccc(Cl)cc1)C2=O (stereo not given) | 3.4% | 5.45% | -7.96% | 1.66% | 4.01% |
| Cc1ccc(NS(=O)(=O)c2ccc3[nH]c4c(c3c2)CCCC4)cc1C | -1.27% | 4.62% | -1.02% | -5.65% | 1.89% |
| O=C(CCCCCCNC(=O)c1cnc(N(c2ccccc2)c2ccccc2)nc1)NO | -9.45% and -7.77% | -12% | -7.5% and 2.31% | -21.6% and 1.86% | -17.7% and 24.6% |
| CCn1c(=O)n(CC(=O)NCc2ccc3c(c2)OCO3)c(=O)c2cnc(-c3ccc(Cl)cc3)nc21 | 3.39% | 1.64% | 1.28% | -1.19% | -0.823% |
| CCN(C)C(=O)CN1C[C@@H]2C[C@H]1C(=O)N2c1cc(-c2ccccc2)ccc1OC | -3.06% | 0.541% | 1.82% | -3.58% | -0.277% |
| COC(=O)C1(C)CCCC2(C)c3ccc(C(C)C)cc3C(O)C(O)C12 (stereo not given) | -2.66% | 6.79% | 9.05% | -8.55% | -1.64% |
| COc1cccc(CNC(=O)Nc2nc(-c3ccncc3)cs2)c1 | -25.2% | -9.13% | -12.1% | -40.2% | -12.3% |
| COC(=O)[C@H]1CN(C(=O)NC(C)C)CCN1S(C)(=O)=O | -6.82% | -13.1% | -3.02% | -8.13% | -4.89% |
| CN(Cc1ccccc1)C1CCOC2(CCN(C(=O)CCc3nc4ccccc4[nH]3)CC2)C1 (stereo not given) | -8.41% | -1.03% | -8.3% | -3.45% | 2.98% |
| CC1CCC(NC(=O)C2(c3ccccc3)Cn3c(cc4sccc43)C(=O)N2Cc2ccccc2)CC1 (stereo not given) | 6.15% | 3.74% | 7.23% | 0.02% | -0.497% |
| CC(=O)O[C@@H]1C(O)C[C@@]2(C)C(CC[C@@H](C)C23Cc2c(O)cc4c(c2O3)CNC4=O)C1(C)C (stereo not given in full) | -0.086% | -14.5% | -2.05% | -27.5% | -5.48% |

From PubChem BioAssay AID1745853 (National Center for Advancing Translational Sciences (NCATS), 2022)
